The GPR68 mutational scans of Howard et al. (2025)
The least precise scores are not listed. Two further conditions of the source, in which the scores hardly spread, are not listed. Names with del lack the residues named; names with ins carry added residues between the positions named. For some of these results: The concentration of ogerin is not given here.

B1: GPR68, Q15743 (parent)
chain: MGNITADNSSMSCTIDHTIHQTLAPVVYVTVLVVGFPANCLSLYFGYLQIKARNELGVYLCNLTVADLFYICSLPFWLQYVLQHDNWSHGDLSCQVCGILLYENIYISVGFLCCISVDRYLAVAHPFRFHQFRTLKAAVGVSVVIWAKELLTSIYFLMHEEVIEDENQHRVCFEHYPIQAWQRAINYYRFLVGFLFPICLLLASYQGILRAVRRSHGTQKSRKDQIQRLVLSTVVIFLACFLPYHVLLLVRSVWEASCDFAKGVFNAYHFSLLLTSFNCVADPVLYCFVSETTHRDLARLRGACLAFLTCSRTGRAREAYPLGAPEASGKSGAQGEEPELLTKLHPAFQTPNSPGSGGFPTGRLA

What was measured:
[1] = variants of: B1; experiment: cAMP reporter score (Enrich2 score, wild type = 0); higher = more signal; HEK293T, FACS bins
[2] = variants of: B1; experiment: surface expression score (Enrich2 score, wild type = 0); higher = more signal; HEK293T, FACS bins

Row | Variant | cAMP reporter score ([1]; pH 5.5) | cAMP reporter score ([1]; pH 6) | cAMP reporter score ([1]; pH 6, modulator: ogerin) | cAMP reporter score ([1]; pH 6.5, modulator: ogerin) | surface expression score [2]
1 | MGNITADNSSMSCTIDHTIHQTLAPVVYVTVLVVGFPANCLSLYFGYLQYKARNELGVYLCNLTVADLFYICSLPFWLQYVLQHDNWSHGDLSCQVCGILLYENIYISVGFLCCISVDRYLAVAHPFRFHQFRTLKAAVGVSVVIWAKELLTSIYFLMHEEVIEDENQHRVCFEHYPIQAWQRAINYYRFLVGFLFPICLLLASYQGILRAVRRSHGTQKSRKDQIQRLVLSTVVIFLACFLPYHVLLLVRSVWEASCDFAKGVFNAYHFSLLLTSFNCVADPVLYCFVSETTHRDLARLRGACLAFLTCSRTGRAREAYPLGAPEASGKSGAQGEEPELLTKLHPAFQTPNSPGSGGFPTGRLA [I50Y] | 0.126 | -1.17 | -0.646 | -0.849 | -1.94
2 | I50_K51del | -1.52 |  | -0.862 | -0.606 | -1.37
3 | I50_K51insGS | -1.97 | -1.4 | -1.47 | -0.712 | -2.58
4 | I50_K51insGSG | -1.52 | -1.5 | -1.72 | -1.2 | -2.21
5 | A52_N54del | -0.907 | -0.989 | -1.17 | -1.36 | -2.44
6 | A52_R53insGSG | -0.961 | -1.23 | -1.57 | -0.94 | -1.73
7 | A52del | -1.3 |  |  | 0.334 | -1.7
8 | R53_N54insG | -0.079 | -1.4 | -0.536 | -0.918 | -2.34
9 | N54_E55insG | -0.961 | -1.15 | -0.598 | -0.815 | -1.63
10 | N54_E55insGS | 0.317 |  | -2.17 | -1.88 | -1.05
11 | N54_L56del | -1.38 | -1.47 | -2.81 | -0.614 | -2.54
12 | MGNITADNSSMSCTIDHTIHQTLAPVVYVTVLVVGFPANCLSLYFGYLQIKARNALGVYLCNLTVADLFYICSLPFWLQYVLQHDNWSHGDLSCQVCGILLYENIYISVGFLCCISVDRYLAVAHPFRFHQFRTLKAAVGVSVVIWAKELLTSIYFLMHEEVIEDENQHRVCFEHYPIQAWQRAINYYRFLVGFLFPICLLLASYQGILRAVRRSHGTQKSRKDQIQRLVLSTVVIFLACFLPYHVLLLVRSVWEASCDFAKGVFNAYHFSLLLTSFNCVADPVLYCFVSETTHRDLARLRGACLAFLTCSRTGRAREAYPLGAPEASGKSGAQGEEPELLTKLHPAFQTPNSPGSGGFPTGRLA [E55A] | -0.406 | -0.157 | -0.444 | -0.517 | 2.41
13 | MGNITADNSSMSCTIDHTIHQTLAPVVYVTVLVVGFPANCLSLYFGYLQIKARNCLGVYLCNLTVADLFYICSLPFWLQYVLQHDNWSHGDLSCQVCGILLYENIYISVGFLCCISVDRYLAVAHPFRFHQFRTLKAAVGVSVVIWAKELLTSIYFLMHEEVIEDENQHRVCFEHYPIQAWQRAINYYRFLVGFLFPICLLLASYQGILRAVRRSHGTQKSRKDQIQRLVLSTVVIFLACFLPYHVLLLVRSVWEASCDFAKGVFNAYHFSLLLTSFNCVADPVLYCFVSETTHRDLARLRGACLAFLTCSRTGRAREAYPLGAPEASGKSGAQGEEPELLTKLHPAFQTPNSPGSGGFPTGRLA [E55C] | -0.677 |  | -1.46 | -1.31 | 1.48
14 | MGNITADNSSMSCTIDHTIHQTLAPVVYVTVLVVGFPANCLSLYFGYLQIKARNDLGVYLCNLTVADLFYICSLPFWLQYVLQHDNWSHGDLSCQVCGILLYENIYISVGFLCCISVDRYLAVAHPFRFHQFRTLKAAVGVSVVIWAKELLTSIYFLMHEEVIEDENQHRVCFEHYPIQAWQRAINYYRFLVGFLFPICLLLASYQGILRAVRRSHGTQKSRKDQIQRLVLSTVVIFLACFLPYHVLLLVRSVWEASCDFAKGVFNAYHFSLLLTSFNCVADPVLYCFVSETTHRDLARLRGACLAFLTCSRTGRAREAYPLGAPEASGKSGAQGEEPELLTKLHPAFQTPNSPGSGGFPTGRLA [E55D] | 0.502 |  | 0.281 | 2.46 | -1.56
